The values below come from publication PMC5892938.

The list shows a part of the results. At the low end of the ranking the order means little.

For the experiment, the target named is GST-SBP-SLBP (stem-loop binding protein) (UniProt Q14493). The experiment can be described thus: targeted RNA Bind-n-Seq.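 Also: DESeq read counts versus GST-SBP nonspecific binding control pulldown.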 The conditions noted are these: RBNS binding buffer: 25 mM Tris pH 7.5, 150 mM KCl, 3 mM MgCl2, 0.1% Tween, 0.5 mg/mL BSA, 1 mM DTT; 27 nM protein, 750 pM RNA pool; temperature not stated; high values mean tight binding.
In the case of “GGUCACGUCUCAAUCAACUCAUCGUCAGGAGUUUCCUCCUGUAAUCUCAACAGCUCGCAGUCAAG”, the binding signal (log2 fold change) was determined as 0.211.

As for “GGUCACGUCUCAAUCAACUCUAGGUCAGGAGUUUUCUCCUGUUAAUUCAACAGCUCGCAGUCAAG”, the binding signal (log2 fold change) is -0.0176.

Regarding “GGUCACGUCUCAAUCAACUCUUUCGAGGGGGGGAAAACCCCUUUGCCCUCAAUAUCAACAGCUCGCAGUCAAG”, the binding signal (log2 fold change) came out at 0.246.

As to “GGUCACGUCUCAAUCAACUCACUAGAGGGGGGGAAAACCCCUUUGCCCUCAUUCUCAACAGCUCGCAGUCAAG”, the binding signal (log2 fold change) came to 0.144.

Consider “GGUCACGUCUCAAUCAACUCUAAAGAGGGGGGGAAAACCCCUUUACCCUCACAUUCAACAGCUCGCAGUCAAG”, for which the binding signal (log2 fold change) is 0.0871.

In the case of “GGUCACGUCUCAAUCAACUCAGUCUCAGGAGUUUUCUCCUGCAUUUUCAACAGCUCGCAGUCAAG”, the binding signal (log2 fold change) amounted to 0.0197.

Consider “GGUCACGUCUCAAUCAACUCUCACGAGGGGGGGAAAACCCCUUUGCCCUCAAUCUCAACAGCUCGCAGUCAAG”, for which the binding signal (log2 fold change) was -0.237.

Consider “GGUCACGUCUCAAUCAACUCUUACGAGGGGGGGAAAACCCCUUUACCCUCACAAUCAACAGCUCGCAGUCAAG”, for which the binding signal (log2 fold change) was -0.0584.

On to “GGUCACGUCUCAAUCAACUCUUCCCCCAGGGAAAACCCUGGUAUACUCAACAGCUCGCAGUCAAG”, for which the binding signal (log2 fold change) was determined as 0.14.

In the case of “GGUCACGUCUCAAUCAACUCAGUUCCAGGAGUUUUCUCCUGUAUAUUCAACAGCUCGCAGUCAAG”, the binding signal (log2 fold change) was determined as 0.00536.

Take “GGUCACGUCUCAAUCAACUCUUUAGAGGGGGGGAAAACCCCUUUACCCUCAUCGUCAACAGCUCGCAGUCAAG”: the binding signal (log2 fold change) is -0.0294.

As for “GGUCACGUCUCAAUCAACUCCUUAGAGGGGGGGAAAACCCCUUUACCCUCAUUCUCAACAGCUCGCAGUCAAG”, the binding signal (log2 fold change) was 0.132.

For the sequence “GGUCACGUCUCAAUCAACUCAUUCUCCAGGGAAACCCCUGGCUUAGUCAACAGCUCGCAGUCAAG”, the binding signal (log2 fold change) came to 0.168.

On to “GGUCACGUCUCAAUCAACUCCCAAGAGGGGGGGAAAACCCCUUUACCCUCACUCUCAACAGCUCGCAGUCAAG”, for which the binding signal (log2 fold change) was 0.558.

Consider “GGUCACGUCUCAAUCAACUCAAUUUCCAGGGAAACCCCUGGUUUUUUCAACAGCUCGCAGUCAAG”, for which the binding signal (log2 fold change) is -0.255.

In the case of “GGUCACGUCUCAAUCAACUCUAUUUCAGGAGUUUCCUCCUGUAUUUUCAACAGCUCGCAGUCAAG”, the binding signal (log2 fold change) was found to be 0.0431.

As to “GGUCACGUCUCAAUCAACUCAUCCCCAGGAGUUUGCUCCUGCUAAUUCAACAGCUCGCAGUCAAG”, the binding signal (log2 fold change) amounted to 0.209.

For “GGUCACGUCUCAAUCAACUCAUCCUCAGGAGUUUGCUCCUGCUAUCUCAACAGCUCGCAGUCAAG”, the binding signal (log2 fold change) was 0.253.

With “GGUCACGUCUCAAUCAACUCAAUCCCAGGAGUUUACUCCUGUAAUUUCAACAGCUCGCAGUCAAG”, the binding signal (log2 fold change) was -0.0558.

With “GGUCACGUCUCAAUCAACUCUUUUUCCAGGGAAAGCCCUGGUAUUUUCAACAGCUCGCAGUCAAG”, the binding signal (log2 fold change) is -0.208.

On to “GGUCACGUCUCAAUCAACUCUAUUUCCAGGGAAACCCCUGGUAUUUUCAACAGCUCGCAGUCAAG”, for which the binding signal (log2 fold change) came to 0.0344.

For “GGUCACGUCUCAAUCAACUCAACUCCAGGAGUUUACUCCUGCAAUCUCAACAGCUCGCAGUCAAG”, the binding signal (log2 fold change) was found to be 0.032.

On to “GGUCACGUCUCAAUCAACUCAUUUUCAGGAGUUUUCUCCUGCGUAUUCAACAGCUCGCAGUCAAG”, for which the binding signal (log2 fold change) is -0.0937.

As to “GGUCACGUCUCAAUCAACUCUAUCCCCAGGGAAAGCCCUGGCUAAUUCAACAGCUCGCAGUCAAG”, the binding signal (log2 fold change) is 0.095.

Take “GGUCACGUCUCAAUCAACUCUCUAGAGGGGGGGAAAACCCCUUUUCCCUCAUUAUCAACAGCUCGCAGUCAAG”: the binding signal (log2 fold change) is -0.00703.

As to “GGUCACGUCUCAAUCAACUCAAUCUCAGGAGUUUACUCCUGUAUAUUCAACAGCUCGCAGUCAAG”, the binding signal (log2 fold change) stood at 0.0383.

On to “GGUCACGUCUCAAUCAACUCAUUCUCCAGGGAAAUCCCUGGUAAUCUCAACAGCUCGCAGUCAAG”, for which the binding signal (log2 fold change) is -0.119.

“GGUCACGUCUCAAUCAACUCCCUAGAGGGGGGGAAAACCCCUUUACCCUCGUAUUCAACAGCUCGCAGUCAAG”: the binding signal (log2 fold change) is -0.516.

For “GGUCACGUCUCAAUCAACUCAUCGCCCAGGGAAACCCCUGGUAAUUUCAACAGCUCGCAGUCAAG”, the binding signal (log2 fold change) was -0.0686.

For the sequence “GGUCACGUCUCAAUCAACUCAUUUUCCAGGGAAACCCCUGGUUUUUUCAACAGCUCGCAGUCAAG”, the binding signal (log2 fold change) was -0.31.

“GGUCACGUCUCAAUCAACUCAUCUUCAGGAGUUUCCUCCUGCUUAGUCAACAGCUCGCAGUCAAG”: the binding signal (log2 fold change) turned out to be 0.0723.

On to “GGUCACGUCUCAAUCAACUCUACUCCAGGAGUUUCCUCCUGCAUAUUCAACAGCUCGCAGUCAAG”, for which the binding signal (log2 fold change) worked out at 0.0764.

Regarding “GGUCACGUCUCAAUCAACUCUACUUCAGGAGUUUUCUCCUGCAUUUUCAACAGCUCGCAGUCAAG”, the binding signal (log2 fold change) was -0.0621.

“GGUCACGUCUCAAUCAACUCUAUCCCAGGAGUUUUCUCCUGCUUACUCAACAGCUCGCAGUCAAG”: the binding signal (log2 fold change) stood at 0.0337.

For the sequence “GGUCACGUCUCAAUCAACUCUUAAGAGGGGGGGAAAACCCCUUUACCCUCCAAUUCAACAGCUCGCAGUCAAG”, the binding signal (log2 fold change) was -0.45.

On to “GGUCACGUCUCAAUCAACUCUACUUCAGGAGUUUACUCCUGUUUACUCAACAGCUCGCAGUCAAG”, for which the binding signal (log2 fold change) is -0.0193.

In the case of “GGUCACGUCUCAAUCAACUCUAUCUCCAGGGAAAACCCUGGCAAACUCAACAGCUCGCAGUCAAG”, the binding signal (log2 fold change) was -0.0127.

Regarding “GGUCACGUCUCAAUCAACUCAUUCCCAGGAGUUUUCUCCUGUUAAUUCAACAGCUCGCAGUCAAG”, the binding signal (log2 fold change) is -0.138.

Turning to “GGUCACGUCUCAAUCAACUCUUCCUCCAGGGAAAGCCCUGGUUUUCUCAACAGCUCGCAGUCAAG”, the binding signal (log2 fold change) was 0.0519.

Consider “GGUCACGUCUCAAUCAACUCAUUCGCAGGAGUUUACUCCUGGUAUCUCAACAGCUCGCAGUCAAG”, for which the binding signal (log2 fold change) worked out at 0.104.

Take “GGUCACGUCUCAAUCAACUCUUUCCCCAGGGAAACCCCUGGCAUACUCAACAGCUCGCAGUCAAG”: the binding signal (log2 fold change) was found to be 0.0252.

Take “GGUCACGUCUCAAUCAACUCAUCCUCCAGGGAAAACCCUGGCAUUUUCAACAGCUCGCAGUCAAG”: the binding signal (log2 fold change) was -0.111.

As to “GGUCACGUCUCAAUCAACUCUUUCCCAGGAGUUUCCUCCUGUUUAUUCAACAGCUCGCAGUCAAG”, the binding signal (log2 fold change) came out at 0.0284.

Consider “GGUCACGUCUCAAUCAACUCAUUUUCCAGGGAAAACCCUGGCUAAUUCAACAGCUCGCAGUCAAG”, for which the binding signal (log2 fold change) is -0.092.

As to “GGUCACGUCUCAAUCAACUCAAUUUCCAGGGAAACCCCUGGCAUUUUCAACAGCUCGCAGUCAAG”, the binding signal (log2 fold change) stood at 0.0609.

For “GGUCACGUCUCAAUCAACUCAUUUUCCAGGGAAACCCCUGGCAGUCUCAACAGCUCGCAGUCAAG”, the binding signal (log2 fold change) was 0.261.

For the sequence “GGUCACGUCUCAAUCAACUCAUGUCCAGGAGUUUUCUCCUGCUAUUUCAACAGCUCGCAGUCAAG”, the binding signal (log2 fold change) stood at 0.128.
